Experimental data reported in PubChem BioAssay AID759 (NMMLSC, 2007).
In all, about 190,000 compounds went through this assay and about 270 (0.14%) were called active. The shares of active, inactive and inconclusive entries below differ from those in the screen.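 The calls were made as follows: active = GTP binding activity at least 20% away from the 100% baseline, either lowered as inhibitor or raised as activator; inconclusive = flagged as likely green fluorescent, judged across all proteins in the well; inactive = the rest.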

target: GTPase HRas (Homo sapiens) (UniProt P01112); experiment: HRas wt fluorescent GTP binding changes, either direction – biochemical, wildtype, bead-based flow cytometry, multiplex, primary screen (AID 759); conditions: GST-Ras wt beads, Bodipy-FL-GTP binding, at 10 µM, actives lie on both sides;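 also: 0% = unlabeled GTP competition control and 100% = no-compound control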
Chain of UniProt P01112 (P01112 whole entry, looked up): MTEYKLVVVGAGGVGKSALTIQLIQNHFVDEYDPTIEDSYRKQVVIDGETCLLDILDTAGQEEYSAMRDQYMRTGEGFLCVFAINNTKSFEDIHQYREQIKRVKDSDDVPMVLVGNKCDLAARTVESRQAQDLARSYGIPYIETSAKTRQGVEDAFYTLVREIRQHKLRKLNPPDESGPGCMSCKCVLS

SMILES	GTP binding activity
COc1cccc(-c2nc3ccc(O)cc3c(=O)o2)c1	inconclusive: 96%
CCCCNC(=O)NNC(=O)c1ccc(F)cc1	inconclusive: 103%
COC(=O)CN1C(=O)S/C(=C/c2ccc(N3CCCCC3)o2)C1=O	inconclusive: 113%
COc1ccc(CN(C(=O)c2cccs2)c2ccccc2)cc1	inconclusive: 93%
O=C(NC1CC1)c1cc(F)c(F)cc1Cl	inconclusive: 98%
COc1cccc(/C=N/NC(=O)COc2cccc3cccnc23)c1O	inconclusive: 96%
Cc1ccccc1Cn1cnc2c([N+](=O)[O-])c(C)c(C)cc21	inconclusive: 96%
C=CCN(C(=O)C1=NN(C2CCS(=O)(=O)C2)C(=O)CC1)c1nc(-c2ccc([N+](=O)[O-])cc2)cs1 (stereo not given)	inactive: 93%
C=CCSc1nc2sc(C)c(C)c2c(=O)n1N	inactive: 100%
CC(=O)Nc1ccc(OCc2nnc(-c3ccc(Cl)cc3)o2)cc1	inconclusive: 92%
Cc1ccc(Nc2nnc(SCC(=O)NCCN3C(=O)CSC3=O)s2)cc1C	inactive: 94%
CC(=O)N1CCN(c2ccc(NC(=O)c3ccc(C)cc3)cc2)CC1	inconclusive: 105%
COc1cc(/C=N/NC(=O)Nc2cccc3nsnc23)cc(OC)c1OC	active: 58%
Cc1cc(-n2c(=O)c(C#N)cc3c(=O)n4cccc(C)c4nc32)no1	inconclusive: 104%
COc1ccc(F)cc1C(=O)C1CCCN(Cc2ccc(Oc3ncccn3)cc2)C1 (stereo not given)	inconclusive: 96%
O=C(NCCNc1ccc([N+](=O)[O-])cc1C(F)(F)F)c1ccc(F)cc1	inconclusive: 101%
CCNC(=O)COc1ccc(Br)cc1Cl	inconclusive: 104%
COc1ccc(CCn2c(C)cc(C(=O)CSc3nnnn3-c3ccccc3)c2C)cc1	inconclusive: 105%
NC(=O)c1ccc2nc(NC(=O)c3ccc(N)cc3)sc2c1	inconclusive: 91%
C=CCOC(=O)C1=C(C)N=C2SCCC(=O)N2C1/C=C/c1ccccc1OC (stereo not given)	inactive: 99%
O=C(Nc1ccccc1-c1ccccc1)NC1CC2CCCC(C1)N2Cc1ccc(F)cc1 (stereo not given)	inconclusive: 96%
Cc1ccc(C(=O)NN2C(=O)/C(=C/c3cccn3C)SC2=S)cc1	inconclusive: 90%
Cn1ncc(C#N)c1/N=C/N(Cc1ccccc1)Cc1ccccc1	inconclusive: 103%
COc1ccc(O)c(C(=O)c2cnc3c(c2)c(-c2ccc(F)cc2)c(C#N)c(=O)n3C)c1	inactive: 95%

SMILES	GTP binding activity
Brc1ccccc1-c1nnc(SCc2nc3ccccc3s2)o1	inconclusive: 92%
CCc1cc(C(=O)N2CCCC(CNS(=O)(=O)c3cccs3)C2)n(C)n1 (stereo not given)	inactive: 95%
CCOc1ccc(Oc2ccc(Cl)cc2N)cc1	inactive: 98%
Cc1cccc(-c2c3c(=O)n(C)c(=O)n(C)c3c3cccnn23)c1	inactive: 103%
Cc1ccc(CN2CCN(/N=C/c3cc(Br)cc(Br)c3O)CC2)c(C)c1	inconclusive: 97%
Cc1ccc(OC(=O)c2cc3ccccc3o2)cc1	inconclusive: 105%
O=C(NC1CCCC1)C(c1ccncc1)N(Cc1ccccc1)C(=O)Cc1cccs1 (stereo not given)	inconclusive: 105%
COc1ccc(-c2cc(=O)c3cc(OC)ccc3[nH]2)cc1	inconclusive: 128%
Cc1[nH]c2ccccc2c1/C=C(\C#N)C(=O)NC(C)c1ccccc1 (stereo not given)	inconclusive: 93%
Cc1ccc(-c2n[nH]c(=S)c3ccccc23)cc1	inconclusive: 90%
COc1cccc(-c2csc3nnc(SCC(=O)c4ccc(NC(C)=O)cc4)n23)c1	inconclusive: 105%
Cc1ccc(NC(=O)CSCC(=O)NCCc2ccccn2)c(C)c1	inactive: 98%
O=C(Nc1ccc2c3c(cccc13)CC2)c1ccco1	inconclusive: 102%
CC(=O)Nc1cccc(C(=O)/C=C/c2ccco2)c1	inconclusive: 106%
CSc1nc(Cc2ccccc2)cc(=O)[nH]1	inactive: 116%
O=C(Nc1ccc(N2CCCC2)c(Cl)c1)c1cccs1	inconclusive: 92%
COc1ccccc1C1/C(=C(/O)c2ccccc2)C(=O)C(=O)N1CCO (stereo not given)	inconclusive: 105%
CCC1CCCCN1S(=O)(=O)c1ccc(NC(=O)CSc2ncccc2C(=O)O)cc1 (stereo not given)	inconclusive: 77%
CCOC(=O)C1(Cc2ccc(OC)cc2)CCN(C(=O)c2cncs2)CC1	inactive: 94%
O=C(CCCSc1nc(-c2ccco2)cc(C(F)(F)F)n1)NCc1cccs1	inconclusive: 94%
O=C(Nc1nc(-c2ccc(S(=O)(=O)N3CCCCCC3)cc2)cs1)c1cccs1	inconclusive: 79%
COc1ccc(OC)c(Nc2nc(-c3sc(N)nc3C)cs2)c1	active: 79%
CC(C)C[C@H](NC(=O)Nc1ccc(S(N)(=O)=O)cc1)C(=O)O	inconclusive: 104%
COc1cccc(N(CC(=O)N/N=C(\C)c2cccs2)S(C)(=O)=O)c1	inactive: 103%

SMILES	GTP binding activity
S=C(Nc1cccc(Cl)c1)N(CCCN1CCCC1)Cc1cccn1Cc1ccc(Cl)cc1	inconclusive: 102%
Cc1cccc(-n2c(N)c(C(=O)N3CCN(C)CC3)sc2=S)c1	inconclusive: 93%
CC1(C)CC(=O)C=C(Nc2ccccc2O)C1	inconclusive: 105%
COc1ccc(NC(=O)COC(=O)c2ccco2)c([N+](=O)[O-])c1	inconclusive: 91%
NC(=O)c1nnn(-c2nonc2N)c1-c1ccc([N+](=O)[O-])cc1	inactive: 98%
O=C(CCC(=O)OCc1ccc(Br)cc1)Nc1ccccc1	inactive: 98%
COc1ccc(-c2cnnc(N/N=C/c3ccc(OC)c(OC)c3)n2)cc1	inconclusive: 114%
O=C(N/N=C1\CCSC1)c1cc(Cl)ccc1O	inconclusive: 87%
O=C(/C=C/c1ccccc1)NC(NC(=S)Nc1cccc(O)c1)C(Cl)(Cl)Cl (stereo not given)	inactive: 98%
Cc1ccc(COc2ccsc2C(=O)NNC(N)=S)cc1	inactive: 89%
CC(C(=O)Nc1ccc(S(=O)(=O)N2CCOCC2)cc1)N1C(=O)C2CC=CCC2C1=O (stereo not given)	inactive: 99%
COc1cc2[nH]c(=S)nc(NCCc3ccc(S(N)(=O)=O)cc3)c2cc1OC	active: 35%
COc1ccc(Cl)cc1NC(=O)CN1c2ccccc2CC1C (stereo not given)	inconclusive: 92%
O=C(O)c1csc(Cc2ccccc2)n1	inconclusive: 111%
O=C1C2C3C=CC(C3)C2C(=O)N1CNc1ccc(O)cc1 (stereo not given)	inconclusive: 89%
COc1cc2ncnc(NCc3cccs3)c2cc1OC	inactive: 98%
COc1cccc(/C=C/C(=O)Nc2ccccc2N2CCOCC2)c1	active: 53%
CCOC(=O)C1=NOC(CN(c2ccccc2)S(=O)(=O)c2ccc(Cl)cc2)C1 (stereo not given)	inactive: 93%
COC(=O)c1ccc(C)c(NC(=O)Cc2coc3cc(OC)ccc23)c1	inconclusive: 95%
CC(C)(C)NC(=O)CCN(/N=C/c1ccc([N+](=O)[O-])o1)C1=NS(=O)(=O)c2ccccc21	active: 42%
CCN(c1ccc(NC(=O)CN2C(=O)NC3(CCOc4ccccc43)C2=O)cc1)C(C)C (stereo not given)	inactive: 100%
CCOC(=O)NC(c1ccc(C(C)C)cc1)C(Cl)(Cl)Cl (stereo not given)	inconclusive: 97%
Cc1cc([N+](=O)[O-])nn1CC(=O)Nc1sc2c(c1C(N)=O)CCCC2	inconclusive: 81%
COCCn1c(SCC(=O)OC(C)C)nnc1-c1ccccc1	inconclusive: 101%

SMILES	GTP binding activity
Cc1ccc(OCC(=O)Nc2ccc(-c3nnc(-c4ccco4)o3)cc2)cc1	inconclusive: 107%
O=C(CCC1CCCCC1)NNC(=O)NC12CC3CC(CC(C3)C1)C2	inactive: 102%
O=[N+]([O-])c1cccc(S(=O)(=O)N2CCCC2)c1	inconclusive: 118%
CCn1cc(C(=O)NCc2ccco2)c(=O)c2cc(S(=O)(=O)N3CCCCCC3)ccc21	inconclusive: 93%
Cc1cc(C)cc(N(CC(=O)NCCSc2ccccn2)S(=O)(=O)c2ccccc2)c1	inconclusive: 98%
COc1ccccc1/C=C/C(=O)OCc1nc2ccccc2c(=O)[nH]1	inactive: 99%
S=C(N=Nc1ccccc1)NNc1ccccc1	inactive: 101%
Cc1cccc(C)c1NC(=S)NC(C)CCc1ccccc1 (stereo not given)	inactive: 102%
O=C1N/C(=C/c2ccc(N3CCOCC3)o2)C(=O)N1c1cccc(Cl)c1	inactive: 100%
CCN=C1S/C(=C\c2cn(CC)c3ccccc23)C(=O)N1CC	inactive: 102%
O=C(OCCN1CCCCC1)c1cc2ccccc2o1	inactive: 106%
CCOC(=O)N1CCC2(CC1)C(C#N)=C(N)OC1=C2C(=O)CC(C)C1 (stereo not given)	inconclusive: 103%
c1cncc(-c2nnc(C3CCCCC3)o2)c1	inconclusive: 107%
COc1ccc(NC(=O)C2CCCN2S(=O)(=O)c2ccc3c(c2)CCC(=O)N3)cc1 (stereo not given)	inconclusive: 99%
O=C(COc1ccccc1C(=O)N/N=C\c1ccc(O)c(O)c1)N/N=C/c1ccc(O)c(O)c1	inconclusive: 78%
Cc1ccc(O)c(C(=O)c2cnn(C(=O)Cc3csc(C)n3)c2)c1	active: 77%
Cc1ccc(-c2ccnc3nc(-n4cccc4)nn23)o1	inactive: 94%
CC(=O)c1ccc(NC(=S)Nc2cccc(Cl)c2C)cc1	inconclusive: 96%
OC(COc1ccc2ccccc2c1)Cn1ccnc1 (stereo not given)	inactive: 98%
O=C(CC(=O)c1ccccc1)Nc1ccc2c(c1)OCCO2	inconclusive: 103%
O=C(NCc1ccccn1)c1cc2cc(Br)ccc2oc1=O	inconclusive: 103%
S=C(NCc1ccc(Cl)cc1Cl)NC1CCCCC1	inactive: 97%
O=C(CSCc1c(Cl)cccc1Cl)Nc1ccccc1C(=O)N1CCOCC1	inconclusive: 106%
